Data as given in patent US20240425574A1, “ANTI-PDGF-B ANTIBODIES AND PHARMACEUTICAL COMPOSITION THEREOF” (Regeneron Pharmaceuticals, Inc., priority 2021, published 2024).

Key:
monkey PDGF-BB = assay: Biacore T200/MASS-2 binding kinetics at 25° C. (Examples 8, 14); set-up: species or system Macaca fascicularis
Experimental: 90 nM of human and monkey PDGF-BB were prepared, and serially diluted 3-fold. The sample was injected at 25 uL/minute for 3 minutes and the dissociation was monitored for 10 minutes. The kinetics parameters were evaluated by fitting the real time data using 1:1 binding model with mass transport limitation.
The equilibrium dissociation constant (KD) for PDGF-BB binding to different PDGF-BB monoclonal antibodies (mAbs) was determined using a real-time surface plasmon resonance biosensor using a Biacore T200 or MASS-2 instrument. All binding studies were performed in 10 mM HEPES, 300 mM NaCl, and 0.05% v/v Surfactant Tween-20, pH 7.4 (HBS-P) running buffer at 25° C. The sensor chip surface was first derivatized by amine coupling with human Fc specific mouse mAb (REGN2567) to capture different PDGF-BB mAbs. […] At the end of each cycle, the PDGF-BB mAb captured surface was regenerated using a 10-12 seconds injection of 20 mM phosphoric acid.
The association rate (ka) and dissociation rate (kd) were determined by fitting the real-time binding sensorgrams to a 1:1 binding model with mass transport limitation using Scrubber 2.0c curve-fitting software. Binding dissociation equilibrium constant (KD) and dissociative half-life (t½) were calculated from the kinetic rates as: […]

retinal vessel pericytes = assay: Retinal Vascular Development (RVD) model, pericytes; type: in vivo, mouse
Experimental: In analyzing the effect of anti-PDGF-B antibodies on P2 wild-type mice retinal vasculature, there was no observed effect on the pericyte coverage in anti-PDGF BB treated retinas at 3 mg/kg dosage.
To determine effect of anti-PDGF-B antibodies on retinal vasculature in P2 WT mice, the anti-PDGF-B antibodies were injected at P2; and tissue was collected at P5. All retinas were incubated with anti-NG2 antibody to detect vessel pericytes.

monocrotaline rats = assay: Study #1, 4 weeks Monocrotaline PAH rats, preventive treatment (Example 19); type: in vivo, rat
Experimental: In order to evaluate the effect of two inhibitory anti-PDGF-B antibodies in the rat monocrotaline model of pulmonary arterial hypertension, 2 studies were performed: study #1 was performed on 4-week Monocrotaline PAH Rats with Preventive Drug Treatment; and study #2 was performed on 5-weeks Monocrotaline Severe PAH Rats Survival with Therapeutic Drug Treatment (Tables 26-27).
Six to seven weeks old male Sprague Dawley rats were used. Rats were separated into treatment groups such that body weights were similar among different groups. […] On day one, rats were subcutaneously administered either 40 mg/kg of monocrotaline or 5 mL/kg or saline as control. On day 28, right ventricular systolic pressure (RVSP) was measured by right heart catheterization and RV hypertrophy was calculated by Fulton index as the weight ratio of RV to (LV+septum). In study #2, rats were subcutaneously administered either 60 mg/kg of monocrotaline or 5 mL/kg of saline. […] Small molecule group was orally administered macitentan at 30 mg/kg daily. Body weight change from day 0-35 were used for general toxicity assessment and animal mortality and median survival time were calculated by day 35.
Right heart catheterization and right ventricular systolic pressure: Rats were anesthetized with isoflurane and were kept at approximately 37° C. using a heated platform (Heated Hard Pad 1, Braintree Scientific) and circulating heated water pump (T/Pump Classic, Gaymar Industries). The neck area for each rat was prepared for surgery by depilating over the right common Carotid artery and right Jugular vein. An incision was made, and the right Jugular vein was isolated with care as to not damage the carotid artery and/or the vagus nerve. A piece of 5-0 silk suture was placed under the isolated Jugular vein to allow for retraction of the vessel cranially, then a 23-gauge needle was used to introduce a hole into the Jugular vein. […] The catheter was connected to pressure/volume instrument (MPVS-300, Millar Instruments, Inc.) that measured heart rate as well as both diastolic and systolic right ventricular pressures. […] Readings were quantified from a 60 second interval of the pressure tracing (following a 2-minute period of recording to allow for pressure stabilization). The parameters analyzed were right ventricular systolic pressures (RVSP) and heart rate (HR).
Right heart hypertrophy assessment: After the in vivo hemodynamic measurements, animals were euthanized by exsanguinations under anesthesia and then RV free wall, left ventricle (LV) and septum tissue were harvested and weighted. RV hypertrophy was calculated by Fulton index as the weight ratio of RV to (LV+septum).

[1] = MCT 40 mg/kg rats, 10 mg/kg SC twice per week, vs isotype control IgG

B1: H4H13145P: fully human anti-PDGF-B mAb, human IgG4 Fc; HCVR/LCVR SEQ ID NOs: 2/10, HC/LC 18/20 (antibody)
heavy: QVQLVQSGTEVKKPGASVKVSCKASGYTYGAYAISWVRQAPGQGLEWMGWISAYNGNTNYAQKFQDRVTMTTDTSTNTAYMELRGLKSDDTAVYFCARAWNSFDYWGQGTLVTVSSASTKGPSVFPLAPCSRSTSESTAALGCLVKDYFPEPVTVSWNSGALTSGVHTFPAVLQSSGLYSLSSVVTVPSSSLGTKTYTCNVDHKPSNTKVDKRV[human IgG4 Fc with S228P (EU numbers) left out here]
light: DIQMTQSPSSLSASVGDRVTITCQASQDIRKNLNWYQQKPGKAPKLLISDASTLETGVPSRFSGSGSGTDFTFTISSLQPEDIAKYYCQQYYNLPFTFGPGTKVDIKRTVAAPSVFIFPPSDEQLKSGTASVVCLLNNFYPREAKVQWKVDNALQSGNSQESVTEQDSKDSTYSLSSTLTLSKADYEKHKVYACEVTHQGLSSPVTKSFNRGEC
- 30 nM mfPDGF-BB Bound (RU) (monkey PDGF-BB; 30 nM mfPDGF-BB over captured mAb): 73.4 RU
- binding to commercial Monkey PDGF-BB (monkey PDGF-BB; MASS-2): specific binding
- ka (monkey PDGF-BB; monkey PDGF-BB): 930000 M⁻¹ s⁻¹
- kd (monkey PDGF-BB; monkey PDGF-BB): 1.5e-05 s⁻¹
- effect on retinal vessel pericytes (retinal vessel pericytes; 3 mg/kg, P2 wild-type mice): no apparent effect
- effect on pericyte depletion (retinal vessel pericytes; higher dose (25 mg/kg), injected at P2, tissue at P5): moderate effect
- reduction of right ventricular hypertrophy (monocrotaline rats; 10 mg/kg, compared to isotype control-treated rats): 36%
- Right ventricular systolic pressure (RVSP) Mean ± SD (monocrotaline rats; MCT 40 mg/kg rats, 10 mg/kg SC twice per week from day −1, day 28): 54.36 ± 12.87
- Reduction % (RV Hypertrophy) (monocrotaline rats; [1]): 36%
- Reduction % (RYSP) (monocrotaline rats; [1]): 38%
